Data taken from the supplement of paper PMC4967469.
A lower IC50 marks a more sensitive line; a limit (>, <) means that the fit lies beyond the doses tested. AUC is the area under the same curve over the 256-fold range up to the top dose, as a fraction; values near 1 show little effect. For part of these data: A top dose marked as inferred was calculated from the reported fits. For part of these data: Where an entry number is given, a second screen of the drug exists; the two often differ.

Key:
Assay in all cases: Viability of human cancer cell lines after 72 h of drug (GDSC screen)
XMD13-2 = compound: O=C(NC1CC1)c1cccc(-c2ccc3c(NC(=O)C4CC4)n[nH]c3c2)c1 [XMD13-2]; settings: top dose 10.24 µM; top dose inferred
Method: (§1)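 Human cancer cell lines in 384-well plates, medium with 10% serum, drug for 72 h over a 256-fold dose range (nine 2-fold or five 4-fold steps up to the top dose). Adherent lines were fixed and stained with the nucleic acid dye Syto60, suspension lines read with resazurin; signal relative to control wells, capped at 0 and 100%. One two-parameter sigmoid per drug and line, fitted in a mixed model over all curves with the slope shared within a line.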

PF-562271 = compound: CN(c1ncccc1CNc1nc(Nc2ccc3c(c2)CC(=O)N3)ncc1C(F)(F)F)S(C)(=O)=O [PF-562271]; settings: top dose 2.56 µM; top dose inferred
Method: as §1

Afatinib = compound: CN(C)C/C=C/C(=O)Nc1cc2c(Nc3ccc(F)c(Cl)c3)ncnc2cc1O[C@H]1CCOC1 [Afatinib]
Method: as §1

SNX-2112 = compound: CC1(C)CC(=O)c2c(C(F)(F)F)nn(-c3ccc(C(N)=O)c(N[C@H]4CC[C@H](O)CC4)c3)c2C1 [SNX-2112]; settings: top dose 2.56 µM
Method: as §1

Vinblastine = compound: CC[C@]1(O)C[C@@H]2CN(CCc3c([nH]c4ccccc34)[C@@](C(=O)OC)(c3cc4c(cc3OC)N(C)[C@H]3[C@@](O)(C(=O)OC)[C@H](OC(C)=O)[C@]5(CC)C=CCN6CC[C@]43[C@@H]65)C2)C1 [Vinblastine]; settings: top dose 0.1 µM; top dose inferred
Method: as §1

[1] = top dose 0.5 µM, screen: GDSC drug entry 1032
[2] = top dose 10 µM, screen: GDSC drug entry 1377, top dose inferred

| Cell Line | AUC (XMD13-2) | IC50 (XMD13-2) [nM] | AUC (PF-562271) | IC50 (PF-562271) [nM] | AUC (Afatinib; [1]) | IC50 (Afatinib; [1]) [nM] | AUC (Afatinib; [2]) | IC50 (Afatinib; [2]) [nM] | AUC (SNX-2112) | IC50 (SNX-2112) [nM] | AUC (Vinblastine) | IC50 (Vinblastine) [nM] |
| --- | --- | --- | --- | --- | --- | --- | --- | --- | --- | --- | --- | --- |
| HT-1080 (fibrosarcoma, adherent) | 0.983 | > 10200 | 0.937 | > 2560 | 0.989 | > 500 | 0.988 | > 10000 | 0.903 | > 2560 | 0.444 | 4.48 |
| HOP-62 (lung adenocarcinoma, adherent) | 0.927 | > 10200 | 0.879 | > 2560 | 0.986 | > 500 | 0.984 | > 10000 | 0.347 | 60.3 | 0.595 | 11.4 |
| OVCAR-4 (ovary, adherent) | 0.93 | > 10200 | 0.896 | > 2560 | 0.944 | > 500 | 0.846 | > 10000 | 0.945 | > 2560 | 0.685 | 26.7 |
| JHH-7 (liver, adherent) | 0.908 | > 10200 | 0.892 | > 2560 | 0.981 | > 500 | 0.962 | > 10000 | 0.765 | 884 | 0.67 | 18 |
| KM12 (large intestine, adherent) | 0.908 | > 10200 | 0.665 | 482 | 0.983 | > 500 | 0.895 | > 10000 | 0.68 | 533 | 0.563 | 9.44 |
| L-428 (Hodgkin lymphoma, suspension) | 0.981 | > 10200 | 0.993 | > 2560 | 0.993 | > 500 | 0.992 | > 10000 | 0.834 | 1400 | 0.802 | 42.4 |
| BL-41 (Burkitt lymphoma, suspension) | 0.555 | 873 | 0.9 | 1890 | 0.994 | > 500 | 0.993 | > 10000 | 0.176 | 23.9 | 0.207 | 1.14 |
| MOG-G-CCM (glioma, adherent) | 0.837 | 8550 | 0.84 | 2210 | 0.983 | > 500 | 0.974 | > 10000 | 0.394 | 77.5 | 0.412 | 3.44 |
| TT2609-C02 (thyroid, adherent) | 0.979 | > 10200 | 0.806 | 1400 | 0.96 | > 500 | 0.983 | > 10000 | 0.533 | 198 | 0.541 | 8.14 |
| SK-UT-1 (soft tissue, adherent) | 0.952 | > 10200 | 0.833 |  | 0.988 | > 500 | 0.984 | > 10000 | 0.886 | 2390 | 0.546 | 8.24 |
| Ramos-2G6-4C10 (Burkitt lymphoma, suspension) | 0.787 | 3770 | 0.932 | > 2560 | 0.974 | > 500 | 0.986 | > 10000 | 0.317 | 53.9 | 0.211 | 1.05 |
| MPP-89 (mesothelioma, adherent) | 0.97 | > 10200 | 0.972 | > 2560 | 0.938 | > 500 | 0.922 | > 10000 | 0.972 | > 2560 | 0.632 | 16.2 |
| PFSK-1 (medulloblastoma, adherent) | 0.854 | 8900 | 0.958 | > 2560 | 0.983 | > 500 | 0.973 | > 10000 | 0.419 | 94.6 | 0.461 | 4.85 |
| NCI-H650 (lung adenocarcinoma, adherent) | 0.928 | > 10200 | 0.942 | > 2560 | 0.961 | > 500 | 0.985 | > 10000 | 0.384 | 74.2 | 0.653 | 17.3 |
| JHU-022 (head and neck, adherent) | 0.968 | > 10200 | 0.873 | > 2560 | 0.691 | 125 | 0.61 | 1360 | 0.84 | 2490 | 0.604 | 13.1 |
| SUP-M2 (anaplastic large cell lymphoma, suspension) | 0.647 | 1470 | 0.943 | > 2560 | 0.993 | > 500 | 0.993 | > 10000 | 0.237 | 35.3 | 0.152 | 0.793 |
| DU-4475 (breast, suspension) | 0.914 | > 10200 | 0.899 | 2190 | 0.992 | > 500 | 0.987 | > 10000 | 0.207 | 27.3 | 0.869 | 64.9 |
| SNU-387 (liver, adherent) | 0.918 | > 10200 | 0.811 | 1600 | 0.983 | > 500 | 0.974 | > 10000 | 0.461 | 123 | 0.551 | 8.8 |
| SR (lymphoid neoplasm, suspension) | 0.58 | 1030 | 0.928 | > 2560 | 0.988 | > 500 | 0.938 | > 10000 | 0.127 | 12.6 | 0.212 | 1 |
| LXF-289 (lung adenocarcinoma, adherent) | 0.939 | > 10200 | 0.889 | > 2560 | 0.979 | > 500 | 0.937 | > 10000 | 0.651 | 417 | 0.502 | 6.34 |
| JHU-011 (head and neck, adherent) | 0.812 | 5360 | 0.886 | > 2560 | 0.515 | 34.3 |  |  | 0.393 | 81.8 | 0.352 | 2.45 |
| KP-2 (pancreas, adherent) | 0.942 | > 10200 | 0.936 | > 2560 | 0.968 | > 500 | 0.895 | > 10000 | 0.825 | 1700 | 0.581 | 10.6 |
